Measured values from PubChem BioAssay AID1745849 (National Center for Advancing Translational Sciences (NCATS), 2022).
About 320 (15%) of roughly 2,100 compounds were called active. Inconclusive results, whose numbers are uncertain, are shown with a selection of clear calls. The call rests on the fitted dose curve; in most records, active means well fitted cell-killing curve with a large enough effect; inconclusive means small, poorly fitted or top-dose-only effect, or effect the other way; inactive means flat fitted curve, though single readings scatter. Potencies of inconclusive entries are doubtful fits and often do not repeat.

Test: Viability Counterscreen for CMV-Luciferase Assay of Inhibitors of ATXN expression; further: nearly all actives have a fitted effect of over 55% in size
Details: HEK-293 CMV-luciferase cells viability, protease fluorescence, 24 h; activity change, negative = cytotoxicity: at the top concentration
Summary of the method: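 Fluorescence from cleaved Gly-Phe-AFC (25 uM final, 30 min, ex 405/em 540 nm) reported viability, and the luciferase signal of the same CMV-reporter HEK-293 wells was read 5 min after SteadyGlo addition. Dosing lasted 24 hr.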
On the % scale 0 is the no-effect control and ±100 the full control effect; potency means the concentration at half of the fitted maximal effect; tags describe the fitted curve by direction and shape.

Structure (SMILES) | Potency | activity change, negative = cytotoxicity
Cc1ccc(Nc2c(-c3ccccn3)nc3cc(C)ccn23)cc1 | active: 3.55 µM | –
CN(Cc1cnc2nc(N)nc(N)c2n1)c1ccc(C(=O)NC(CCC(=O)O)C(=O)O)c2ccccc12 (stereo not given) | inconclusive: 20 µM [rising, partial curve] | –
Cc1ccc(OCC(=O)c2cc(C)n(Cc3cccs3)c2C)c([N+](=O)[O-])n1 | – | inactive: -22.1% [at 57.5 µM]
Cc1[nH]c2ccccc2c1C1=NNC(=Nc2ccc(F)cc2)SC1 | inconclusive: 20 µM [cytotoxic, single point] | –
O=C(N/N=C/c1ccccc1O)/C(=C/c1ccccc1)CCO | – | inactive: -7.96%
CCCc1cc(=O)[nH]c(-n2[nH]c3c(c2=O)CCCC3)n1 | active: 22.4 µM | –
Cc1ccc(/C=C2\SC(=S)N(CCCC(=O)Nc3cc(C)on3)C2=O)cc1 | – | inactive: -24.9%
C/C(=N\Nc1cc(N2CCOCC2)nc(C)n1)c1cccc([N+](=O)[O-])c1 | – | inactive: -2.94%
CCOC(=O)N1CCN(C(=O)c2ccc(Cn3c(=S)[nH]c4ccc(Br)cc4c3=O)cc2)CC1 | inconclusive: 7.08 µM [cytotoxic, single point] | –
COc1ccnc(Oc2ccc(F)cc2)c1C(=O)N/C=N/OCc1ccc(Cl)cc1Cl | inconclusive: 39.8 µM [cytotoxic, single point] | –
Oc1c(C(Nc2ccccn2)c2cccnc2)cc(Cl)c2cccnc12 (stereo not given) | – | inactive: 20.9% [at 57.5 µM]
O=C(N/N=C/c1ccc(O)cc1O)c1ccc(CN2C(=O)c3cccc4cccc2c34)cc1 | inconclusive: 0.631 µM [cytotoxic, full curve] | –
COc1cccc(/C=N/NC(=O)c2cc(-c3ccccn3)nc3ccccc23)c1O | active: 2.82 µM | –
COc1cc(C(=O)NNC(=O)c2ccc3ccccc3n2)cc(OC)c1OC | inconclusive: 15.8 µM [cytotoxic, partial curve, poor fit] | –
COc1ccc(C(NC(=O)c2cccnc2)c2cc(Cl)c3cccnc3c2O)cc1OC (stereo not given) | inconclusive: 3.55 µM [cytotoxic, partial curve, poor fit] | –
NC(Cc1ccccc1)c1csc(Nc2nncc3ccccc23)n1 (stereo not given) | inconclusive: 28.2 µM [cytotoxic, single point] | –
O=S(=O)(Nc1ccc(O)c2ccccc12)c1ccc(F)cc1 | inconclusive: 7.08 µM [rising, single point] | –
CCCCNC(=O)C1(C)CCCCN1Cc1ccccc1-c1ccccc1 (stereo not given) | – | inactive: -15.7% [at 57.5 µM]
CCOC(=O)c1cnc(-n2nc(C)cc2C)nc1NNc1cc(C)nc(-c2ccccc2)n1 | active: 8.91 µM | –
COc1cccc(C(=O)Nc2nc(-c3ccc(S(=O)(=O)N4CCOCC4)cc3)cs2)c1 | – | inactive: -15.2%
FC(F)(F)c1cc(-c2ccccn2)nc2cc(-c3ccccc3)nn12 | inconclusive: 28.2 µM [rising, single point] | –
COc1ccc(CCCNC(=O)C2Cc3c(-c4cccc(NC(C)=O)c4)ccnc3O2)cc1 (stereo not given) | – | inactive: -5.64%
CNc1nc2c(N)ncnc2n1[C@H]1O[C@@H](CO)[C@H](O)[C@@H]1O | – | inactive: 1.58%
COc1ccc(C(NC(C)=O)c2cc(Cl)c3cccnc3c2O)cc1OC (stereo not given) | inconclusive: 2.24 µM [cytotoxic, full curve, poor fit] | –

Structure (SMILES) | Potency | activity change, negative = cytotoxicity
COc1ccc(CC(=O)Nc2nc(-c3ccc(F)c(F)c3)cs2)cc1OC | inconclusive: 11.2 µM [cytotoxic, partial curve] | –
CC1(C)Cc2c(c(N3CCOCC3)nc3sc4c(NN)ncnc4c23)CS1 | – | inactive: 23.7% [at 57.5 µM]
O=C(NCc1cc(C(F)(F)F)ccc1Cl)c1cccc2c1C(=O)c1ccc(N3CCOCC3)cc1S2(=O)=O | – | inactive: -8.41%
COc1cc2c3nnc(-c4ccc(F)cc4)c-3cn(Cc3ccccc3F)c2cc1OC | inconclusive: 3.16 µM [rising, partial curve, poor fit] | –
CC(=O)Nc1ccc(CNc2nc(NC(C)C)nc3cc(-c4ccccc4)sc23)cc1 | active: 25.1 µM | –
O=C(N/N=C\c1c(O)ccc2ccccc12)c1ccc(Cn2cccn2)o1 | – | inactive: 18.6%
COC(/C(=N/O)c1ccc(Cl)cc1)c1ccccc1 (stereo not given) | inconclusive: 39.8 µM [cytotoxic, single point] | –
CCCCC(=O)NC(c1ccccc1)c1ccc2cccnc2c1O (stereo not given) | inconclusive: 3.16 µM [cytotoxic, single point] | –
CC(=O)Oc1ccc(N(C(C)=O)S(=O)(=O)c2ccc(C)cc2C)c2ccccc12 | inconclusive: 25.1 µM [cytotoxic, partial curve, poor fit] | –
Cc1[nH]c(=O)c(C(=O)/C=C/c2ccccc2)c2c1CCCC2 | active: 11.2 µM | –
COc1cc(/C=C2\SC(=O)N(CC(=O)Nc3ccccc3F)C2=O)cc(Cl)c1O | – | inactive: 26%
O=C(O)CSc1cc(NS(=O)(=O)c2cccc([N+](=O)[O-])c2)c2ccccc2c1O | – | inactive: -27.2%
COc1ccc(-c2nc(NC(=O)C3CC(=O)N(c4ccc5c(c4)OCCO5)C3)sc2C)cc1 (stereo not given) | inconclusive: 7.08 µM [cytotoxic, full curve] | –
N=c1n(CCN2CCCCC2)c2ccccc2n1CC(O)c1ccc(Cl)c(Cl)c1 (stereo not given) | active: 20 µM | –
COc1ccc2cc(C#N)c(N3CCN(C(=O)c4ccccc4C)CC3)nc2c1 | inconclusive: 3.55 µM [cytotoxic, single point] | –
CC(=O)c1cccc(-c2cnc3c(NC=O)cc(-c4ccccc4F)cn23)c1 | inconclusive: 4.47 µM [cytotoxic, single point] | –
Cc1ccc(S(=O)(=O)N(C)C)cc1NC(=O)c1cncc(Br)c1 | inconclusive: 15.8 µM [cytotoxic, single point] | –
CN(C)CCNc1cccc2sc3ccc(O)cc3c(=O)c12 | active: 12.6 µM | –
Cc1nc(-c2cccc(NC(=O)c3cccc(S(=O)(=O)N4CCCC4)c3)c2)cs1 | inconclusive: 20 µM [cytotoxic, single point] | –
COc1ccc(Nc2nc(N3CCCC3)c3ccccc3n2)cc1 | inconclusive: 22.4 µM [cytotoxic, partial curve, poor fit] | –
CN(C)c1ccc(Cc2cc3c(O)ccc(O)c3cc(Cc3ccc(N(C)C)cc3)c2=O)cc1 | inconclusive: 4.47 µM [cytotoxic, partial curve, poor fit] | –
CCOc1ccc(OCC)c(NC(=O)Nc2ccc3c(c2)N(C)C(=O)CS3)c1 | inconclusive: 25.1 µM [cytotoxic, partial curve] | –
COc1ccc(N2CCN(c3ccnc4cc(Cl)ccc34)CC2)cc1 | – | inactive: 1.26%
Oc1ccc(CN2CCC(Cc3ccccc3)CC2)c2cccnc12 | inconclusive: 0.708 µM [cytotoxic, full curve, poor fit] | –

Structure (SMILES) | Potency | activity change, negative = cytotoxicity
CN(C)CCCN(C(=O)c1ccc(S(=O)(=O)N(C)Cc2ccccc2)cc1)c1nc2cc3c(cc2s1)OCO3 | active: 22.4 µM | –
C=CCc1ccccc1OCC(O)CN1CCN(CCN2C(=O)c3cccc4cccc(c34)C2=O)CC1 (stereo not given) | inconclusive: 22.4 µM [cytotoxic, single point] | –
Cc1ccc2nc(SCc3ccc([N+](=O)[O-])cc3)[nH]c2c1 | – | inactive: -7.46%
CC1(C)COCN1S(=O)(=O)c1ccc(C(=O)Nc2nnc(-c3ccc(Cl)s3)o2)cc1 | – | inactive: -16.1%
CC1C(=O)C(C)C(c2cc(Br)ccc2O)NC1c1cc(Br)ccc1O (stereo not given) | inconclusive: 28.2 µM [cytotoxic, single point] | –
O=C(c1ccco1)N1CCN(c2ncnc3scc(-c4cccs4)c23)CC1 | – | inactive: -21.1%
O=S(=O)(c1ccc2nc(COc3ccc(Cl)cc3Cl)[nH]c2c1)N1CCOCC1 | – | inactive: 14.4%
Cc1ccc(-c2nc3cc(Br)cnc3nc2-c2ccc(C)cc2)cc1 | inconclusive: 0.794 µM [rising, full curve, poor fit] | –
CC(C)N(C(=O)COC(=O)c1ccccc1C(=O)c1ccc(Cl)c([N+](=O)[O-])c1)C(C)C | – | inactive: -28.3%
CC(=O)Oc1c(Br)cc(N(C(C)=O)S(=O)(=O)c2ccccc2)c2ccccc12 | inconclusive: 17.8 µM [cytotoxic, partial curve, poor fit] | –
Cc1cc(/C=N/n2cnnc2)c(C)n1-c1ccc(OCc2ccc(Cl)cc2Cl)cc1 | active: 28.2 µM | –
COc1cccc(/C=N/NC(=O)CSCC(=O)Nc2ccccc2)c1O | inconclusive: 1.78 µM [cytotoxic, partial curve, poor fit] | –
CCCC[C@@H](CNC)NC[C@H](NCCCCC1CCCCC1)C(C)C | active: 28.2 µM | –
Cc1cc(N/N=C\c2ccc(Br)cc2)nc(-n2nc(C)cc2C)n1 | – | inactive: -7.45% [at 57.5 µM]
Cc1ccc(C)c(/C=C/C(=O)c2ccccc(=O)c2O)c1 | active: 20 µM | –
CC1Sc2ccc(S(=O)(=O)CCC(=O)N3CCN(c4cccc(Cl)c4)CC3)cc2NC1=O (stereo not given) | – | inactive: -24.1% [at 57.5 µM]
Cn1c(SCc2ccc(C(C)(C)C)cc2)nnc1C1COc2ccccc2O1 (stereo not given) | – | inactive: -14.2%
O=C(Nc1cccc(-c2cccc(Cl)c2)c1)C1CCN(Cc2ccccn2)CC1 | inconclusive: 12.6 µM [cytotoxic, partial curve, poor fit] | –
CNC(=O)c1sc(N2N=C3/C(=C/c4ccccc4)CCCC3C2c2ccccc2)nc1C (stereo not given) | inconclusive: 35.5 µM [rising, partial curve] | –
Cc1ccc(NS(=O)(=O)c2ccc(NC(=O)C(C)Sc3ccc(Cl)cc3)cc2)c(C)c1 (stereo not given) | inconclusive: 28.2 µM [cytotoxic, single point] | –
CCC(=O)NC(c1ccc(Cl)cc1Cl)c1ccc2cccnc2c1O (stereo not given) | inconclusive: 3.55 µM [cytotoxic, partial curve, poor fit] | –
COc1ccc(-n2cc(CN(C)C(C)c3ccncn3)c(-c3cccc(F)c3)n2)cc1 (stereo not given) | inconclusive: 39.8 µM [cytotoxic, single point] | –
